Source: PubChem BioAssay AID624296 (National Center for Advancing Translational Sciences (NCATS), 2012)
Out of some 350,000 compounds screened, about 9,900 (2.8%) were called active. The inconclusive results got no clear call from the source; some entries with a clear call stand among them for comparison. Calls come from the whole dose curve; as a rule, active = well fitted activation curve with a large enough effect; inconclusive = small, poorly fitted or top-dose-only effect; inactive = no such curve, though single readings can be large or run the other way. Potencies of inconclusive entries are left out as doubtful fits.

Experiment: A quantitative high throughput screen for small molecules that induce DNA re-replication in MCF 10a normal breast cells. For activity, positive = re-replication: % of control where 0% means no effect. Note: nearly all actives have a fitted effect of over 50% in size.
Details: MCF 10A DNA re-replication, Hoechst nuclear intensity, 48 h; activity, positive = re-replication: at 46.1 µM (top of the series)
Potency is the fitted concentration of half-maximal effect; tags give direction and shape of the fitted curve.

| Compound | Potency | activity, positive = re-replication |
| --- | --- | --- |
| O=C(CC1OC(=O)c2ccccc21)Nc1cc(Cl)ccc1N1CCCC1 (centres undefined) | inconclusive [activator, single point] |  |
| Cc1onc(-c2c(F)cccc2Cl)c1C(=O)N1CCCc2ccccc21 | inconclusive [activator, single point] |  |
| CCOc1ccc(C(=O)N/N=C/c2cccc3cccnc23)cc1 | inconclusive [activator, single point] |  |
| CCCCC1=NN2C(=N)CC(=O)N=C2S1 |  | inactive: -0.32% |
| COC(=O)c1ccc(C2C(Oc3ccccc3)C(=O)N2CCc2ccc(OC)c(OC)c2)cc1 (centres undefined) | inconclusive [activator, partial curve, poor fit] |  |
| Cc1ccc(-c2csc(N3CCN(CCCn4c(C(F)(F)F)nc5ccccc54)CC3)n2)cc1 |  | inactive: 18.4% |
| COc1ccc(/C=N/Nc2ncnc(Cl)c2N)cc1OC | inconclusive [activator, full curve, poor fit] |  |
| CC(C)(C)OC(=O)C[C@H]1C/C=C\C[C@H](CC(=O)N(CCO)Cc2ccccc2)C(=O)N[C@H](C(C)(C)C)COC1=O | inconclusive [activator, partial curve, poor fit] |  |
| CCCn1nc(C(=O)NC2CCCC2)c2ccccc2c1=O |  | inactive: -11.9% |
| CCCCOc1ccc(C(=O)CCN2CCCCC2)cc1 | active: 16.4 µM |  |
| CCOc1ccc(C(=O)n2cc(C(=O)OC)c3ccccc32)cc1OCC |  | inactive: 12.2% |
| CCCc1ccc(OCc2ccc(C(=O)N/N=C/c3cccc([N+](=O)[O-])c3)o2)c(OC)c1 | inconclusive [activator, single point] |  |
| CSc1ccc(C(=O)C2CCCN(C(=O)c3nn(C)c(=O)c4ccccc34)C2)cc1 (centres undefined) | inconclusive [activator, partial curve, poor fit] |  |
| O=C(/C=C/c1ccccc1[N+](=O)[O-])NCC1CCCO1 (centres undefined) |  | inactive: -7.26% |
| COC(=O)[C@]1(Cc2ccccc2)N[C@H](CN(C)C(=O)Nc2ccccc2)[C@@H]2C(=O)N(Cc3ccccc3)C(=O)[C@@H]21 | inconclusive [activator, single point] |  |
| Cc1nn(Cc2ccc(F)cc2)c2sc(C(=O)Nc3nccs3)cc12 | inconclusive [activator, partial curve, poor fit] |  |
| Cc1nc(C(C)NC(=O)CCc2nnc(-c3ccsc3)o2)cs1 (centres undefined) |  | inactive: -0.998% |
| COC(C(=O)N/N=C(\C)CC(=O)Nc1ccc(Cl)cc1C)c1ccccc1 (centres undefined) |  | inactive: 3.48% |
| CCC(=O)OCCNc1cc(Sc2nccn2C)c2nonc2c1[N+](=O)[O-] | inconclusive [activator, single point] |  |
